Reference: the supplement of paper PMC12217912
This is one part of the list. Sequences were assembled here from the parent chain. Inactive controls read about 0.05.

B1: TEV protease; numbered along this chain (parent)
chain: MGESLFKGPRDYNPISSSICHLTNESDGHTTSLYGIGFGPFIITNKHLFRRNNGTLVVQSLHGVFKVKDTTTLQQHLVDGRDMIIIRMPKDFPPFPQKLKFREPQREERICLVTTNFQTKSMSSMVSDTSCTFPSGDGIFWKHWIQTKDGQCGSPLVSTRDGFIVGIHSASNFTNTNNYFTSVPKNFMELLTNQEAQQWVSGWRLNADSVLWGGHKVFMVKPEEPFQPVKEATQL

Variants of: B1
Experiment: raw area under fraction-flipped curve 0-4 h after induction (AUC4h, not background-subtracted), DNA-recorder readout of cleavage of the substrate (dimensionless); higher = more cleavage of the substrate by the protease variant
Conditions: temperature: 34 °C; time window: 0-4 h after rhamnose induction
Experimental: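 In vivo DNA recorder in E. coli TOP10(DE3) ΔrhaA at 34 °C. Each TEVp single-site mutant (parent TEVp 0) is paired with a single-site variant of the 7-mer TEVs (canonical ENLYFQ|S). The substrate sits between flexible linkers in a Bxb1-sfGFP-TEVs-SsrA fusion, so cleavage stabilises Bxb1 and speeds flipping of a recombination array, read by NGS. The value is the raw area under the fraction-flipped curve over 0-4 h after rhamnose induction (AUC4h), with ≥20 reads per time point. It is not background-subtracted; inactive controls average about 0.047.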
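Also: Bxb1 expression induced with 0.2% (w/v) L-rhamnose at OD600 near 0.5, cultures sampled hourly, flipped fraction per protease–substrate barcode pair counted by paired-end Illumina sequencing.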

Row | Variant | area with substrate EALYFQS | area with substrate ECLYFQS | area with substrate EELYFQS | area with substrate EFLYFQS | area with substrate EGLYFQS | area with substrate EHLYFQS | area with substrate EILYFQS | area with substrate EKLYFQS | area with substrate ELLYFQS | area with substrate EMLYFQS | area with substrate EQLYFQS | area with substrate ERLYFQS | area with substrate ESLYFQS | area with substrate EVLYFQS | area with substrate EDLYFQS | area with substrate EWLYFQS | area with substrate EYLYFQS | area with substrate ETLYFQS | area with substrate EPLYFQS
1 | G202A | 0.0956 | 0.0715 | 0.0813 | 0.0717 | 0.0646 | 0.076 | 0.081 | 0.0649 | 0.0691 | 0.0819 | 0.093 | 0.073 | 0.0741 | 0.0744 | – | – | – | – | –
2 | V157A | 0.0548 | – | – | 0.0895 | 0.0813 | 0.0821 | – | 0.068 | 0.0925 | 0.0871 | 0.129 | – | 0.134 | 0.0928 | 0.104 | 0.086 | 0.0863 | – | –
3 | K148G | 0.111 | – | 0.0845 | – | – | 0.0639 | 0.0754 | 0.0464 | 0.0725 | 0.0983 | 0.0927 | 0.0769 | 0.0872 | 0.083 | 0.104 | 0.0561 | – | 0.0778 | –
4 | M219C | 0.115 | – | – | – | 0.0768 | – | – | 0.0917 | 0.0964 | 0.0798 | 0.105 | – | 0.102 | 0.0993 | – | 0.117 | – | – | –
5 | M219V | 0.134 | 0.102 | 0.128 | – | 0.121 | – | – | 0.0768 | – | 0.12 | 0.117 | 0.0915 | 0.098 | 0.09 | – | 0.1 | 0.113 | 0.133 | 0.0927
6 | M219E | 0.0826 | 0.0437 | 0.084 | 0.11 | – | – | 0.0622 | 0.0728 | 0.0261 | – | – | – | 0.0822 | – | 0.121 | 0.075 | 0.161 | – | –
7 | N177A | 0.116 | 0.0978 | 0.113 | 0.108 | – | – | 0.0784 | 0.101 | 0.0817 | 0.112 | 0.161 | 0.0881 | 0.104 | 0.0929 | 0.13 | 0.105 | 0.082 | 0.0994 | –
8 | N177H | 0.0947 | 0.0971 | – | 0.0847 | 0.0793 | 0.0826 | 0.0719 | 0.0849 | 0.0731 | 0.092 | 0.093 | 0.0781 | 0.0857 | 0.0779 | 0.108 | – | – | – | 0.125
9 | V217Q | 0.0775 | 0.0468 | – | – | 0.0556 | – | 0.0426 | 0.0654 | 0.0565 | 0.0187 | – | 0.0646 | 0.0534 | 0.059 | – | 0.065 | – | – | 0.0665
10 | S201W | 0.103 | 0.0835 | – | 0.0869 | 0.07 | 0.0819 | 0.0732 | 0.0903 | 0.0631 | 0.0734 | 0.0834 | 0.0833 | 0.0689 | 0.105 | 0.0934 | – | 0.0676 | 0.0497 | 0.0604
11 | K142F | 0.0975 | 0.0678 | – | – | 0.109 | – | 0.0875 | 0.099 | 0.082 | 0.0791 | 0.0909 | 0.0879 | – | 0.077 | 0.139 | – | 0.0867 | 0.0806 | 0.112
12 | K142T | 0.0798 | 0.087 | 0.0906 | – | 0.0885 | 0.0944 | 0.0974 | 0.0841 | 0.0988 | 0.105 | – | 0.0806 | 0.0998 | 0.079 | 0.128 | – | – | 0.0845 | 0.104
13 | I145F | 0.137 | 0.094 | – | – | – | – | – | – | 0.0845 | – | – | 0.0994 | 0.107 | 0.07 | – | – | – | – | 0.125
14 | T181L | 0.0694 | – | 0.0607 | 0.0378 | 0.0792 | – | – | – | – | 0.0606 | 0.0511 | 0.0736 | 0.066 | – | 0.0629 | 0.0616 | – | – | –
15 | T181M | 0.0715 | 0.0641 | 0.0617 | – | 0.0663 | 0.0763 | – | 0.0691 | 0.0598 | – | 0.072 | – | 0.085 | 0.0701 | – | 0.0697 | 0.0761 | 0.0817 | 0.0819
16 | T176Y | 0.0805 | 0.0671 | – | 0.08 | – | 0.0727 | 0.0431 | 0.0658 | – | 0.0652 | 0.0624 | 0.0658 | 0.0686 | 0.0399 | 0.0656 | 0.0619 | – | 0.0779 | –
17 | G150R | 0.0615 | 0.0593 | 0.0635 | – | 0.065 | 0.0598 | 0.0593 | 0.0702 | 0.0498 | 0.0712 | 0.0576 | 0.0546 | 0.0642 | 0.0285 | 0.0534 | 0.0557 | 0.0404 | 0.086 | 0.0523
18 | S171E | 0.0335 | – | – | 0.0628 | – | – | – | 0.047 | 0.0581 | 0.0562 | – | 0.0576 | 0.0602 | 0.0538 | 0.0698 | 0.0674 | – | – | –
19 | F163V | 0.0566 | – | – | 0.0853 | 0.0872 | – | – | – | – | – | – | 0.0981 | 0.0439 | – | 0.13 | 0.121 | – | 0.111 | 0.101
20 | N186L | 0.148 | 0.131 | 0.207 | 0.115 | – | 0.132 | 0.108 | 0.124 | 0.101 | 0.146 | – | 0.127 | 0.0996 | 0.152 | – | – | 0.124 | – | 0.147
21 | N186M | 0.105 | 0.0893 | – | – | – | – | 0.176 | – | 0.0545 | – | 0.103 | – | 0.0973 | – | 0.136 | – | – | 0.109 | 0.105
22 | K185T | 0.11 | 0.0842 | 0.131 | – | – | 0.0904 | 0.0948 | 0.106 | – | 0.118 | 0.106 | – | 0.0945 | 0.0909 | 0.138 | – | 0.104 | 0.108 | 0.106
23 | Q197K | 0.127 | 0.0904 | – | 0.0687 | – | 0.0876 | 0.074 | 0.131 | – | – | – | – | 0.105 | 0.0815 | – | – | – | – | –
24 | A196L | 0.149 | 0.122 | – | 0.132 | 0.104 | 0.14 | 0.113 | 0.13 | 0.098 | 0.121 | 0.146 | 0.136 | 0.101 | 0.103 | 0.129 | 0.113 | 0.104 | – | 0.151
25 | F187E | 0.068 | 0.0604 | 0.0449 | – | 0.0464 | 0.0498 | 0.0505 | 0.0563 | 0.064 | 0.0537 | 0.056 | 0.0514 | 0.056 | 0.0581 | 0.0712 | 0.0471 | 0.0476 | – | 0.0565
26 | H215D | 0.0692 | – | 0.0514 | – | 0.0526 | – | 0.0642 | 0.0635 | – | – | 0.0665 | – | 0.0613 | 0.062 | 0.0584 | 0.0574 | 0.0726 | 0.059 | 0.0604
27 | H215W | 0.0399 | 0.0827 | – | 0.0555 | 0.0587 | – | 0.0651 | 0.0255 | 0.0513 | 0.0693 | – | 0.075 | 0.0645 | 0.0723 | 0.0602 | 0.0929 | – | 0.107 | 0.0429
